Assay results published in paper PMC12136788.
The other results are listed elsewhere or left out.

T1: UNK ZnF1-3 (human, UniProt Q9C0B0 31-174)
T1 sequence: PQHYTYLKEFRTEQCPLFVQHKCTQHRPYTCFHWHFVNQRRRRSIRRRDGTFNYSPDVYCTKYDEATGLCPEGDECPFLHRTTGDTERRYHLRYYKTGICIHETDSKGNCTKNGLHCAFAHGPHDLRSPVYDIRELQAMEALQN

B1: chr10:128108517:128108518:-_ENSMUSG00000049858_ENSMUST00000054764|mus_mus|motif|central (ssRNA)
RNA: GGGAGUUCUACAGUCCGACGAUCAAACUUAUGCAAAUCAUCCAAGGACAGAGACAGUGACUGACCUCCAGGUGCCCCGGCGGCAUGUAAGCGAUAGGUGUGUGGGUCCAGGUUAGGUACAGGCAGAUGGUUACGGGUGAAGAACAACAGAGGAUUGAGCAUCA
B2: chr7:5108331:5108332:+_ENSG00000146587_ENST00000396912|hu_hu|motif|central (ssRNA)
RNA: GGGAGUUCUACAGUCCGACGAUCUUGCACAUGUGCCUUAAGAUAGUUCUGUUUUGUGCAGUUUUAGGCUAUAAAUAUUCGGGUGCAUGUCCUUUGGUGGACAGACACAUGCAUUUUUGCUGGGUUUGGGUAAAACAGUAUACACAACAGAGGAUUGAGCAUCA
B3: chr15:58001004:58001005:+_ENSG00000255529_ENST00000299638|hu_mus|motif|central (ssRNA)
RNA: GGGAGUUCUACAGUCCGACGAUCGUCUACAUCGGUGUCAGCUCUUGUGGUUGCUUUUUGCCUUAGCUUACAGUCGGCACGGACAGGAUGAAACAGUUCACUUCUCCCUCUAACCUCUUCACGUUCUGAAAUGGCAGCUUUCAGCAACAGAGGAUUGAGCAUCA
B4: chr7:118222036:118222037:-_ENSMUSG00000005610_ENSMUST00000162415|mus_mus|motif|central (ssRNA)
RNA: GGGAGUUCUACAGUCCGACGAUCAUCAAAGUUUGGUGCAUCUUCUGCCAAUCGCAGACAUAGCUGAGCAUACAGCGAGCGGUACUUUGGCUCUUCUAAGGCUUUGUCCACAAUCAGCAGUAUGACCCCUUUAAGGAUGAGUUUCAACAGAGGAUUGAGCAUCA
B5: chr7:98534794:98534795:+_ENSG00000196367_ENST00000456197|hu_mus|FALSE|FALSE (ssRNA)
RNA: GGGAGUUCUACAGUCCGACGAUCUGAGGGCUUUGAAAAGAGCAGCAAUGAUUUUCUCCCUGGACUGAGGUAGGUAAUUGCAGGCAGCGAGAGCAUUCAAUGCUGCGAUCCGUAAGGGCACAAGCGAUGGGAGGCUUUUGUAACCAACAGAGGAUUGAGCAUCA
B6: chr11:77340882:77340883:-_ENSG00000074201_ENST00000525064|hu_hu|FALSE|FALSE (ssRNA)
RNA: GGGAGUUCUACAGUCCGACGAUCAACAUACAAAUGCUCUCCUAGACAGUCACUUCGGUCCCUGGAUAAUGCAUGUAAACUAAUGGUGGGGUAUUCCAGUGAGAAUCCUAAUCCAGAGCCAUCUAACCAAGACAGGCGGCUCUCCAACAGAGGAUUGAGCAUCA
B7: chr4:76691598:76691599:+_ENSG00000138768_ENST00000264904|hu_hu|FALSE|FALSE (ssRNA)
RNA: GGGAGUUCUACAGUCCGACGAUCUGCUUAAUGAAAAUUUCUGUAAAUUGGCUUCCCAAAUCUUCACUCUGUCUUGUGGAAUUUUCUUCUACUUCUUCUUCUUCUUCAUUAGAUAUUAUAUUAUAUAGUGUGUCCAAAGCAUAACAACAGAGGAUUGAGCAUCA
B8: chr18:59899606:59899607:+_ENSG00000134444_ENST00000256858|hu_hu|motif|central (ssRNA)
RNA: GGGAGUUCUACAGUCCGACGAUCUCCCAGCAUUAACAUAACGCUUUUUUCACUGUCUGCAAUACGAGACACCUCGUAUCCGGAACGACUAUCUGCUGACAUUCGACAAAAAGAGAGUAGUGCUUGAUGGAAUGCAGGAGACAACAACAGAGGAUUGAGCAUCA
B9: chr9:100389865:100389866:-_ENSG00000136925_ENST00000341170|hu_mus|FALSE|FALSE (ssRNA)
RNA: GGGAGUUCUACAGUCCGACGAUCUAUCAGUGGGACAGGUUCCUUGCAGACAAGUAUCUUCCGCAAACCCUAGGCCUUUCCUGGGUCUCCCUUCACCAACUUGGCGCUGCUCCCCGCCCUCGAGCCCACGCCCCCCGGCGCGCGCAACAGAGGAUUGAGCAUCA
B10: 51412488_51412608_1970_3pUTR_ENSMUSG00000004980_ENSMUST00000114459|mouse|control|control (ssRNA)
RNA: GGGAGUUCUACAGUCCGACGAUCAGACCUGUGUCCCUGAAGAGUACCUCGCUGGGGUUAUUUCCUUUCCUUGCAUUGAAGAAGCAGCAUCUAAAAGAUCUAAAAAGGUGUUUCUCUUUGCAGAGAUAUCCCUUAAGUUAACUACAACAGAGGAUUGAGCAUCA
B11: chr16:94690093:94690094:+_ENSMUSG00000040785_ENSMUST00000117648|mus_hu|mus_mus_mus_hu_True|78_78 (ssRNA)
RNA: GGGAGUUCUACAGUCCGACGAUCGGGCUGGGAUGACGGACACACAGCCUCGAUUCCGGUAAAAAAAAGUCUUAGUCGAUACUAAUUAAAAAGUGUUAAUGAUUUUUGAAAAUCAGAUUACAUCUAUAAAAGAUGAAAAGCAAACAACAGAGGAUUGAGCAUCA
B12: chrX:20248510:20248511:+_ENSMUSG00000001924_ENSMUST00000001989|perfect_dup|motif|central (ssRNA)
RNA: GGGAGUUCUACAGUCCGACGAUCGACCUGACUGACGAUGCCUCCACGGAUGUAGUCGGAGAAGUUGGAGGUGUCACAGAUGCGGAAGGUAUAAGGACCCAGGACUUUGAUCUCCAUGGGCUGAUUUCCGUUGAGUUCAACCAUCAACAGAGGAUUGAGCAUCA
B13: 75176787_75176907_119_3pUTR_ENSMUSG00000026198_ENSMUST00000027396|mouse|control|control (ssRNA)
RNA: GGGAGUUCUACAGUCCGACGAUCAUGGAGCUACGCCGCUUGGGUCGCGGGAAGGGACGCACGUGGACCUGCUACACUGCCCACUCUCUUCACGCACGCGCCGCUACCACGCAUACUCACGCAAGCCACGUACGCCGUGCUUGCCAACAGAGGAUUGAGCAUCA
B14: chr11:87794696:87794697:-_ENSMUSG00000020483_ENSMUST00000020775|mus_mus|motif|central (ssRNA)
RNA: GGGAGUUCUACAGUCCGACGAUCGGCCUUUUAUUUUUAUCUAGGGAGAGAAGAGAAAAGGAGGGGUAGGAGAGAUUUCCGGGUGCAGUACAACCAAAAAAAUAAUGUUAACGUCUUAAAAACAAACGCAAAGCAGCCUUCUUCCAACAGAGGAUUGAGCAUCA
B15: chr13:59231463:59231464:+_ENSMUSG00000055254_ENSMUST00000079828|mus_mus|FALSE|FALSE (ssRNA)
RNA: GGGAGUUCUACAGUCCGACGAUCAAAUGGAAACACUGGUCUCCCUCGGUCUAAAUGACUACCCAAAUACCUGUAAAUUUCUAUAUAAAUUUACCCUCUCUUUUCGGAAAACCAAUGACCAUGUGCGGGCGCAAAUCUCCAGGCCAACAGAGGAUUGAGCAUCA
B16: chr8:108204030:108204031:+_ENSMUSG00000005698_ENSMUST00000005841|mus_mus|FALSE|FALSE (ssRNA)
RNA: GGGAGUUCUACAGUCCGACGAUCGGCCACAGGCUGAGGUGGAGGCGGAGGCUGGGGCUGAGGCUCUGGCUCAGGUUCAAUUUCUACAGCAGGCUCCUCCUCCUCCUCAUUGUCAUCGAGAUCCGGCUCAGCAUUUUCUUCACUCAACAGAGGAUUGAGCAUCA
B17: chr8:104447970:104447971:+_ENSG00000164934_ENST00000297579|hu_hu|hu_hu_hu_mus_False|88_88 (ssRNA)
RNA: GGGAGUUCUACAGUCCGACGAUCAUACACUUCCCUGCUUCGGCUCUUGUCUACAGGAAAGAUUCUAAUAGACUUAUCAAAGCUGGCAGACACAAAUUCCUUCCCAGUGGGAGAGUAGUCCACAUCAAGUACUGCAGACACGUGCAACAGAGGAUUGAGCAUCA
B18: 32429686_32431999_570_CDS_ENSG00000152683_ENST00000406369|human|control|control (ssRNA)
RNA: GGGAGUUCUACAGUCCGACGAUCUCUGAUGAGUUUGUCCAACUGACCAAUAACAUGGGGUGGUGUUGUCUGGAGUAAGACUUUCCCACUGUACACACUCAUGGGAUACAUAGUGCCAAAUGUCAUCAAGGCAAUAGCUAUAGCCAACAGAGGAUUGAGCAUCA
B19: chr1:163112212:163112213:-_ENSG00000143248_ENST00000313961|hu_hu|hu_hu_hu_mus_False|18_88 (ssRNA)
RNA: GGGAGUUCUACAGUCCGACGAUCUUUUAUUAUCAGUAAGAGUGAGUCACAUAGUACGCAAAGUAUUGGAUACAAUAAUCAGGAAACAAACACUAUUGGUCCAGAAUUUAAAACUUUUGGGAUAAAUUGCUGGCACAGGACUUACAACAGAGGAUUGAGCAUCA
B20: chr1:150203005:150203006:-_ENSG00000143401_ENST00000314136|hu_hu|motif|central (ssRNA)
RNA: GGGAGUUCUACAGUCCGACGAUCAAGAUUUGGACAUUUCUCUGCCAGGACUUCCAAGCCUCCAGAAAUUAUAUUAUCACGGAGCUCCAAUUUUCGAAGUUUAUUUAAGCUGGGAAGCCGGGCCAGCGAACUUAGUUCCACAUUCAACAGAGGAUUGAGCAUCA
B21: chr7:151048522:151048523:+_ENSG00000013374_ENST00000566856|hu_mus|hu_hu_hu_mus_True|18_48 (ssRNA)
RNA: GGGAGUUCUACAGUCCGACGAUCCUGUUUCUUAUUUAUUACGAUCUUGAUGUAAUUUUCUUGAAAUCCGAAAGUUUCAGCUAUUUGGGACCUCAGUUCUCUACCAGUGACAUGCAAUCGGGUCUCCAACAAGCUUUUCUUAUCCAACAGAGGAUUGAGCAUCA
B22: chr4:83978449:83978450:+_ENSG00000138663_ENST00000264389|hu_hu|FALSE|FALSE (ssRNA)
RNA: GGGAGUUCUACAGUCCGACGAUCUAUUGUCUUGUAAGAGAGCUCAUUGUACCUUUGUGCAGCUUCAAUGAAUUUUCUUCUAUAAUCAAGAACACGUGCAUAGCAUACCUUAUAAUGUAUCUGUAAUUGUUCAUUGGUUGAUUCCAACAGAGGAUUGAGCAUCA

These binders were tested against T1, UNK ZnF1-3 (assay: nsRBNS (natural sequence RNA bind-n-seq); RBNS binding buffer (assumed for nsRBNS): 25 mM Tris pH 7.5, 150 mM KCl, 3 mM MgCl2, 0.01% Triton X-100, 500 ug/ml BSA, 20 U/ml SUPERase-In, 4 C; UNK is unkempt and MSI1 is Musashi-1; names of the RNAs are library labels; protein concentration not given here; high values mean tight binding).
B1 gave a binding signal of 1.49 enrichment R.
For B2, the binding signal was 0.77 enrichment R.
B3 was tested, and the binding signal was 0.525 enrichment R.
In the case of B4, the binding signal is reported as 0.616 enrichment R.
Binder B5 has a binding signal of 1.14 enrichment R.
B6 showed a binding signal of 1.32 enrichment R.
In the case of B7, the binding signal is reported as 0.655 enrichment R.
In the case of B8, the binding signal is reported as 0.699 enrichment R.
With B9 the binding signal was 1.19 enrichment R.
B10 was tested, and the binding signal was 0.869 enrichment R.
For B11, the binding signal was 1.54 enrichment R.
Work on B12 yielded a binding signal of 0.457 enrichment R.
B13 gave a binding signal of 0.499 enrichment R.
With B14 the binding signal was 1.99 enrichment R.
Binder B15 has a binding signal of 0.967 enrichment R.
Work on B16 yielded a binding signal of 0.507 enrichment R.
B17 was tested, and the binding signal was 1.01 enrichment R.
B18 gave a binding signal of 0.963 enrichment R.
B19 showed a binding signal of 1.51 enrichment R.
With B20 the binding signal was 1.07 enrichment R.
Work on B21 yielded a binding signal of 0.654 enrichment R.
B22 gave a binding signal of 0.625 enrichment R.
